Source: PubChem BioAssay AID2546 (National Center for Advancing Translational Sciences (NCATS), 2010)
Hit rate of the full screen: of about 310,000 compounds, about 11,000 (3.5%) were called active. This list was built around the results that the source calls inconclusive (neither active nor inactive); the mix of calls is not that of the screen. Calls come from the whole dose curve; as a rule, active = well fitted inhibition curve with a large enough effect; inconclusive = small, poorly fitted or top-dose-only effect, or effect the other way; inactive = flat fitted curve, though single readings scatter. Potencies of inconclusive entries are left out as doubtful fits.

Test: VP16 counterscreen qHTS for inhibitors of ROR gamma transcriptional activity;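 note: Gal4-VP16 expression switched on by copper sulfate through the metallothionein promoter; nearly all actives have a fitted effect of over 50% in size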
Conditions: Drosophila S2 Gal4-VP16 UAS-luciferase, luminescence, 20 h; activity, negative = inhibition: at 53.6 µM (top of the series)
Excerpt: NIH Molecular Libraries Probe Production Network [MLPCN]
NIH Chemical Genomics Center [NCGC]
Assay Provider: Dan Littman, New York University
The retinoic acid-related orphan receptor (ROR) gamma is a transcription factor that has a central role in the differentiation of Th17 cells, a subset of T helper cells that secrete the inflammatory cytokines IL-17, IL-17F, and IL-22. Th17 cells have been implicated in graft versus host disease, autoimmune disease and asthma. ROR gamma is induced in naive T helper cells in the presence of TGF-beta combined with IL-6, IL-21, or IL-23, and thereafter directs the expression of the Th17 lineage cytokines. To identify nonspecific inhibitors, a Drosophila Schneider cell line was stably transfected with two vectors: a gene expressing a fusion of the Gal4 DNA binding domain and VP16 transactivation domain under the control of the metallothionine promoter and a Photinus luciferase reporter regulated by the Gal4 binding site enhancer, UAS. […] Small molecule inhibitors that inhibit components common to the RORgt and VP16 assays, such as the Gal4 DNA binding domain or the UAS luciferase reporter, will be active in both assays and thus scored as nonspecific.
For screening, 600 cells in 4 uL/well were dispensed into white solid 1536-well plates (Grenier) using a solenoid-based dispenser. Following transfer of 23 nL compound or DMSO vehicle by a pin tool, the plates were incubated 1 hr at ambient temperature, and 1 uL/well copper sulfate (700 uM final concentration) was added. The plates were centrifuged 15 s at 1000 RPM and incubated 20 hr at ambient temperature. After addition of 1.5 uL Photinus luciferase detection reagent, the plates were incubated 10 min at ambient temperature and then read by a ViewLux (Perkin Elmer) to detect luminescence.
% is set by controls: 0 for no effect and ±100 for the full control effect; potency is the fitted concentration of half-maximal effect; tags give direction and shape of the fitted curve.

| SMILES | Potency | activity, negative = inhibition |
| --- | --- | --- |
| CCC1(C)Cc2ccccc2-c2nc(NN)[nH]c(=O)c21 (stereo not given) | inconclusive [inhibitor, single point] |  |
| COc1ccccc1C(=O)NCC(=O)NC(C)CCc1ccccc1 (stereo not given) | active: 14.1 µM |  |
| O=C1Nc2ccccc2/C1=C\c1cccn1-c1ccc(OC(F)(F)F)cc1 | inconclusive [inhibitor, single point] |  |
| Cc1cccc(Cc2cnc(N3C(=N)SC(c4ccccc4)C3=O)s2)c1 (stereo not given) | active: 1.26 µM |  |
| CCN(CC)S(=O)(=O)c1ccc(N/N=C(\C)c2ccc(OC)cc2O)nc1 | active: 2.51 µM |  |
| O=C(Nc1nc(-c2ccccn2)cs1)C1CC(=O)N(c2ccc3c(c2)OCCO3)C1 (stereo not given) | inconclusive [inhibitor, single point] |  |
| O=C(Nc1nc2ccccc2s1)C1CC(=O)N(c2ccc(Br)cc2)C1 (stereo not given) | inconclusive [inhibitor, single point] |  |
| O=C(Nc1nc(-c2ccccn2)cs1)c1cc2ccccc2o1 | active: 11.2 µM |  |
| O=C(Nc1cccnc1)c1ccc(N2CCCC2)c([N+](=O)[O-])c1 |  | inactive: -6.16% |
| CCCCCC(C)NC(=S)NC(=O)c1cc(S(=O)(=O)N2CCOCC2)ccc1C (stereo not given) | active: 11.2 µM |  |
| O=C(O)c1nc(NCCc2ccccc2)ncc1Cl |  | inactive: -12.5% |
| CC(Oc1ccccc1)C(=O)Nc1nnc(S(=O)(=O)N(C)c2ccccc2)s1 (stereo not given) |  | inactive: 2.98% |
| O=C(Nc1cccc(NC(=O)c2ccco2)n1)c1ccco1 |  | inactive: -7.63% |
| Fc1ccc(Nc2cccc3nccnc23)cc1 | inconclusive [activator, single point] |  |
| CC(=O)c1cn(CC(=O)Nc2ccccc2C)c2ccccc12 | inconclusive [inhibitor, partial curve] |  |
| CCOC(=O)C1(Cc2ccccc2C)CCCN(C(=O)c2ccc(OC)o2)C1 (stereo not given) |  | inactive: -18.1% |
| O=C(NC1CCCC1)C(NS(=O)(=O)c1ccc(Br)s1)c1ccccc1 (stereo not given) | inconclusive [activator, single point] |  |
| CC(=O)Nc1nc2ccccc2n1CCOc1ccccc1Cl | active: 1.26 µM |  |
| O=C(/C=C/c1ccncc1)c1ccc(NC(=O)c2ccccc2F)cc1 | inconclusive [inhibitor, single point] |  |
| Fc1cccc(NCCc2c[nH]c3ccccc23)n1 | inconclusive [activator, single point] |  |
| Cc1cc(NC(=O)c2cccc(COc3ccc(Br)cc3)c2)no1 | inconclusive [inhibitor, partial curve, poor fit] |  |
| O=C1NC(c2ccccc2O)Nc2ccccc21 (stereo not given) |  | inactive: -10.2% |
| CN(C)S(=O)(=O)c1ccc(NC(=O)c2ccc3ncsc3c2)cc1 |  | inactive: 20.3% |
| CCn1c2ccccc2c2cc(C3C(C#N)=C(C)NC(C)=C3C#N)ccc21 |  | inactive: -7.91% |
| Cc1nn(-c2ccccc2)c(N)c1C1(O)C(=O)N(C(C)C)c2ccccc21 (stereo not given) |  | inactive: -0.849% |

| SMILES | Potency | activity, negative = inhibition |
| --- | --- | --- |
| COc1ccc(C(=O)NC2CCCc3c2cnn3-c2ccccc2F)cc1OC (stereo not given) | active: 2.51 µM |  |
| O=C1/C(=C\c2ccc(O)c(O)c2)SC(=S)N1Cc1ccccc1 | inconclusive [inhibitor, single point] |  |
| CCC(NC(=O)C1C2C=CC(C2)C1C(=O)O)c1ccc(C)cc1 (stereo not given) |  | inactive: 2.62% |
| CCOC(=O)C1(CCCc2ccccc2)CCN(S(=O)(=O)N(C)C)CC1 |  | inactive: -11.4% |
| O=C(N/N=C/c1cccc(Oc2ccccc2)c1)c1ccccc1F |  | inactive: -3.54% |
| Cc1nc2cc(N=NC3=C(O)CCCC3=O)ccc2s1 | inconclusive [inhibitor, single point] |  |
| Cc1nnc(NC(=O)c2sc3nc(-c4cccs4)cc(C(F)(F)F)c3c2N)s1 | inconclusive [inhibitor, partial curve] |  |
| O=C(NCc1ccco1)c1ccc2nc3sc4c(c3c(=O)n2c1)CCCC4 | inconclusive [inhibitor, full curve] |  |
| COc1ccc(OC)c(-n2c(-c3cc(-c4ccccc4)n[nH]3)n[nH]c2=S)c1 | inconclusive [inhibitor, single point] |  |
| c1ccc(Nc2c3c(nc4ncnn24)CCC3)cc1 |  | inactive: -25.8% |
| O=C(NC(=S)N1CCN(c2ccc([N+](=O)[O-])cc2)CC1)c1ccccc1Cl | active: 1.41 µM |  |
| C=CCC(C)(NCc1ccccc1)C(=O)OCC (stereo not given) |  | inactive: 7.78% |
| O=C(N/N=C/c1ccc(N2CCCCC2)o1)c1ccccc1[N+](=O)[O-] | active: 8.91 µM |  |
| CCOC(=O)COc1cc(-n2c(=S)[nH]c3cc(OC)c(OC)cc3c2=O)c(Cl)cc1Cl | inconclusive [inhibitor, single point] |  |
| C/C(=N/Nc1ncc(C(F)(F)F)cc1Cl)c1ccncc1 | inconclusive [inhibitor, single point] |  |
| CC(C)Oc1ccc(C(=O)NC(=S)Nc2ccc(CN3CCOCC3)cc2)cc1 | active: 12.6 µM |  |
| O=C1C[C@H]2[C@H](CO)[C@@H](OC(=O)c3ccc(-c4ccccc4)cc3)C[C@H]2O1 |  | inactive: 5.46% |
| C/C(=N/O)c1ccc2c(c1)OCCOCCOc1cc(/C(C)=N/O)ccc1OCCOCCO2 | inconclusive [inhibitor, partial curve, poor fit] |  |
| FC(F)(F)Oc1ccc(NC(=S)Nc2ccc(OC(F)(F)F)cc2)cc1 | inconclusive [inhibitor, single point] |  |
| COc1ccc(C(=O)Nc2ccccc2C(=O)N/N=C/c2cccc3ccccc23)cc1 | active: 0.794 µM |  |
| C/C(CC(=O)Nc1ccc(Cl)cc1)=N\NC(=O)C(=O)N1CCCCC1 | inconclusive [activator, single point] |  |
| CCC/C(O)=C1\C(=O)CC(C)(C)CC1=Nc1cccc([N+](=O)[O-])c1 |  | inactive: 7.55% |
| CC(=O)c1ccc(N2CCN(C(=O)c3ccc(Br)cc3)CC2)c(F)c1 | inconclusive [inhibitor, single point] |  |
| Cc1cccc(N2CCN(C(=O)CCCn3c(=S)[nH]c4cc5c(cc4c3=O)OCO5)CC2)c1C | active: 4.47 µM |  |
| N#Cc1cccn1-c1nccc(-c2cccs2)n1 | inconclusive [activator, single point] |  |

| SMILES | Potency | activity, negative = inhibition |
| --- | --- | --- |
| O=S(=O)(Nc1ccc(-n2cccc2)cc1)c1ccc(Cl)cc1Cl | active: 14.1 µM |  |
| CC(=O)c1cn(CC(=O)Nc2ccccc2F)c2ccccc12 | inconclusive [inhibitor, single point] |  |
| Cc1nn(C)cc1C(=O)Nc1cc(Oc2ccc(Cl)cc2)cc([N+](=O)[O-])c1 | inconclusive [inhibitor, single point] |  |
| Cc1cc(C)nc(/N=C(\N)Nc2ccc(SC(F)F)cc2)n1 | inconclusive [inhibitor, single point] |  |
| CCOc1ccc(/C=N/NC(=O)C(O)c2ccccc2)c(O)c1 (stereo not given) | active: 2 µM |  |
| Cn1ncc(Cl)c1C(=O)NC(=S)Nc1sc2c(c1C#N)CCCCC2 | inconclusive [inhibitor, single point] |  |
| COC(=O)c1c(NC(=O)C2COc3ccccc3O2)sc2c1CCN(C(C)=O)C2 (stereo not given) |  | inactive: -3.42% |
| CC(=O)NCc1cc(-c2nn(C)c(=O)c3ccccc23)ccc1C | inconclusive [inhibitor, single point] |  |
| c1coc(-c2nnc(-c3cccs3)o2)c1 | inconclusive [activator, full curve, poor fit] |  |
| Cc1onc(-c2ccccc2)c1C(=O)N/N=C/c1ccc([N+](=O)[O-])s1 | active: 11.2 µM |  |
| COc1cccc(C(=O)Nc2nnc(C(C)C)s2)c1 | inconclusive [inhibitor, single point] |  |
| CNC(=O)c1cc2c(-c3ccccc3)nn(C)c2s1 | inconclusive [inhibitor, single point] |  |
| COc1ccccc1N(Cc1ccccc1)S(=O)(=O)c1cccc(C(=O)Nc2ccccn2)c1 | inconclusive [activator, full curve, poor fit] |  |
| CO/N=C/NC(=O)N1OC[C@@H]2COc3ccc4ccccc4c3[C@@H]21 |  | inactive: 2.41% |
| COc1ccccc1Nc1nc(-c2sc(NC(=O)c3ccccc3)nc2C)cs1 |  | inactive: -0.564% |
| O=C(NCc1ccco1)C(Cc1ccccc1)N1C(=O)C2C3C=CC(C3)C2C1=O (stereo not given) | inconclusive [inhibitor, single point] |  |
| CCN(CC)c1ccc(S(=O)(=O)N(CC)CC)cc1NC(=O)C1CCCC1 |  | inactive: 0.298% |
| COc1ccc(-c2nnc(Nc3ccc(OC)c(C(=O)N4CCCCC4)c3)c3ccccc23)cc1 | inconclusive [inhibitor, single point] |  |
| CC(C)c1ccc(NC(=S)Nc2ccc3cn[nH]c3c2)cc1 | inconclusive [inhibitor, single point] |  |
| CN(Cc1ccon1)C(=O)CC1C(=O)NCCN1Cc1ccc(F)c(F)c1 (stereo not given) | inconclusive [inhibitor, full curve, poor fit] |  |
| COc1ccc(N2CCN(c3ccc(N4C(=O)COCC4=O)cc3[N+](=O)[O-])CC2)cc1 |  | inactive: -23.3% |
| O=C(OCC(=O)N1CCCC1=O)c1nc(Cl)c(Cl)c(Cl)c1Cl | inconclusive [inhibitor, single point] |  |
| CC(C)OP(=O)(c1ccc(N(C)C)cc1)C(Nc1ccccc1)c1cccnc1 (stereo not given) | inconclusive [activator, single point] |  |
| Cc1ccc(-n2ncc(N(C)C)c(Cl)c2=O)cc1 | inconclusive [inhibitor, partial curve] |  |
| CC(/C=N/Nc1nc2ccccc2[nH]1)=C\c1ccccc1 | active: 7.08 µM |  |
